The other results are listed elsewhere or left out. At the low end of the ranking the order means little.

For the test, the target named is MAX:MAX (p21) (UniProt P61244-2). Briefly: protein-binding microarray (anti-MAX antibody). Particulars: PBM: 15 mM Tris-HCl pH 7.5, 100 mM KCl, 0.075% NP40, 7.5 mM beta-mercaptoethanol, 375 ng/ul BSA, 8 ng/ul poly(dA-dT):(dA-dT), 550 ng complex, 60 min, room …; high values mean tight binding; double strand, one strand shown; sequences stand for … in CCGGC…TTAATAGCTAAGATTACTATATCGACG
Turning to TGATGATTCGTA, the binding signal (log2 normalized fluorescence) is -0.582.
For TGACGTCCCGTA the value was -0.649; for TGAGCGGAAGTA, -0.87; for GGTCACGTGGTA, 3.37.
For TGAGCGCGGGTA the value was 0.0344; for TGAGCACATGTA, 2.89; for TGACGTCGCGTA, -0.223.
Take TGAACAGCAGTA: the binding signal (log2 normalized fluorescence) is -0.0069.
In turn, TGATGGTATGTA displayed a binding signal (log2 normalized fluorescence) of 0.377.
In turn, TGACCGTGTGTA registered a binding signal (log2 normalized fluorescence) of 1.49.
Sequence TGAACGTATGTA had a binding signal (log2 normalized fluorescence) of 0.41.
Sequence TGACCCATAGTA had a binding signal (log2 normalized fluorescence) of -0.477.
Consider TGAGTTCTAGTA, for which the binding signal (log2 normalized fluorescence) is -0.874.
In the case of TGATATTTTGTA, the binding signal (log2 normalized fluorescence) is -1.57.
Under TGACAGCTCGTA stands 0.00848.
For the sequence TGAGGGAAAGTA, the binding signal (log2 normalized fluorescence) was -0.795.
As for TGAAAGGGCGTA, the binding signal (log2 normalized fluorescence) was -0.776.
As to TGACGAACGGTA, the binding signal (log2 normalized fluorescence) was -0.705.
For TGATCCGGAGTA the value was -0.874; for TGATTCTGTGTA, -0.772; for TGACGGAAAGTA, -0.781.
TGACATGCGGCA returned a binding signal (log2 normalized fluorescence) of 3.21.
TGACGGCACGTA showed a binding signal (log2 normalized fluorescence) of 0.404.
In turn, TGATTAGGAGTA displayed a binding signal (log2 normalized fluorescence) of -1.2.
For TGAGATCGCGTA, the binding signal (log2 normalized fluorescence) is -0.906.
Under TGACACGTGGCG stands 3.2; under TTAATCGTGGTA, 1.43.
With TGAACAACAGTA, the binding signal (log2 normalized fluorescence) was -0.42.
Under TGATGATCGGTA stands -0.0714; under TGAACGAACGTA, -0.511.
In turn, TGAAATTAAGTA showed a binding signal (log2 normalized fluorescence) of -0.987.
TGAGCTAGGGTA gave a binding signal (log2 normalized fluorescence) of -1.35.
Consider TGATCAAGTGTA, for which the binding signal (log2 normalized fluorescence) came out at 0.125.
TGTCCCCTGGTA showed a binding signal (log2 normalized fluorescence) of -0.172.
For TGATCACATGTA the value was 3.15; for TGAACACGGGTA, 1.98; for TAAAACGTTGTA, 1.44.
In the case of TGAACCTAGGTA, the binding signal (log2 normalized fluorescence) was -0.72.
Sequence TGATCAATCGTA showed a binding signal (log2 normalized fluorescence) of -0.843.
On to TGAGTCTTCGTA, for which the binding signal (log2 normalized fluorescence) is -1.19.
With TGACATTAGGTA, the binding signal (log2 normalized fluorescence) is -0.00999.
Under TGATACTACGTA stands -0.713; under TGAATTAAAGTA, -1.23; under TGAATTGCTGTA, -0.174.
For TGACGGTTAGTA the value was -0.6.
The sequence TGAAATTGTGTA showed a binding signal (log2 normalized fluorescence) of -0.422.
On to TGAGAAGGCGTA, for which the binding signal (log2 normalized fluorescence) is -1.12.
TGAAAATGGGTA: the binding signal (log2 normalized fluorescence) is -0.385.
Under TGATGTCTAGTA stands -0.236; under TGATCGGCTGTA, -0.898; under TGACGCGTGATA, 3.
For TGAAATGGCGTA the value was -0.42; for TGATGTACTGTA, -0.0626; for TGAGAATTGGTA, -1.26.
For the sequence TGAACAATAGTA, the binding signal (log2 normalized fluorescence) was -0.612.
Sequence TGACGAGTTGTA yielded a binding signal (log2 normalized fluorescence) of -0.0589.
For TGAGATAATGTA the value was -0.776; for TGAACCTACGTA, -0.6; for TGATCATGGGTA, 1.13.
For TGACGTAGCGTA the value was -0.893; for TGACTTTGAGTA, -0.931; for TGACTTCAGGTA, -0.497.
In turn, TGAAACGGAGTA had a binding signal (log2 normalized fluorescence) of -0.679.
As to TGATGGGGGGTA, the binding signal (log2 normalized fluorescence) worked out at 2.21.
For TGACTACGCGTA the value was -0.0968; for TGAGCAGCGGTA, -0.373.
Under TGACCAGGCGTA stands 0.344; under TGATGACCGGTA, 0.0585.
For the sequence TGATCTATAGTA, the binding signal (log2 normalized fluorescence) was -1.19.
In turn, TGATTAAGCGTA had a binding signal (log2 normalized fluorescence) of -1.07.
On to TGATCCTTGGTA, for which the binding signal (log2 normalized fluorescence) was -1.04.
TGAAGCATGGTA yielded a binding signal (log2 normalized fluorescence) of 3.01.
As to TGATGCCACGTA, the binding signal (log2 normalized fluorescence) came out at 0.847.
Sequence TGATTTTCGGTA had a binding signal (log2 normalized fluorescence) of -1.3.
For TGACTATAGGTA, the binding signal (log2 normalized fluorescence) is -0.834.
For TGACGCTATGTA, the binding signal (log2 normalized fluorescence) was -0.607.
In turn, TGATCTTAGGTA registered a binding signal (log2 normalized fluorescence) of -1.37.
Under TGACCTACGGTA stands -0.384; under TGACCATCTGTA, 1.1; under TGATAGTGCGTA, -0.183.
For TGAAGCTTGGTA the value was -0.716; for TGACCGCAAGTA, 0.519; for TGAGTGTGGGTA, 0.513.
On to TGAGTTGTAGTA, for which the binding signal (log2 normalized fluorescence) was -0.917.
AGAGAACGATGT registered a binding signal (log2 normalized fluorescence) of 0.455.
TGATGAGGGGTA returned a binding signal (log2 normalized fluorescence) of 0.293.
Under TGATAGTAGGTA stands -0.639; under TGAAGGTACGTA, 0.00794.
Under TGAACTCCCGTA stands -0.698.
On to TGATGTGTCGTA, for which the binding signal (log2 normalized fluorescence) came out at 0.409.
For TGATAATAAGTA, the binding signal (log2 normalized fluorescence) is -1.04.
Take TGAAATACTGTA: the binding signal (log2 normalized fluorescence) is -0.496.
With AGACAAGTGGTA, the binding signal (log2 normalized fluorescence) was determined as 1.55.
TGAGGCACCGTA had a binding signal (log2 normalized fluorescence) of -0.311.
Under TGAAGGCATGTA stands 1.91.
In the case of TGACCTATCGTA, the binding signal (log2 normalized fluorescence) is -0.652.
In turn, TGAGCACGCGTA came in with a binding signal (log2 normalized fluorescence) of 2.76.
TGAAAACGTGTA gave a binding signal (log2 normalized fluorescence) of 2.54.
Turning to TGAGAGAGAGTA, the binding signal (log2 normalized fluorescence) was -1.35.
TGATCGAGAGTA gave a binding signal (log2 normalized fluorescence) of -0.711.
TGAGCGTAAGTA displayed a binding signal (log2 normalized fluorescence) of -0.712.
For TGATACTCCGTA the value was -1.1; for TGAATTTCGGTA, -1.08; for TGAGAATGGGTA, -0.483.
In turn, TGAGAGGCTGTA displayed a binding signal (log2 normalized fluorescence) of -0.773.
Sequence TGACATTCGGTA displayed a binding signal (log2 normalized fluorescence) of -0.00293.
The sequence TGAATTTGCGTA showed a binding signal (log2 normalized fluorescence) of -0.801.
TGAGGCCACGTA: the binding signal (log2 normalized fluorescence) was found to be 0.499.
Consider TGATGGCGAGTA, for which the binding signal (log2 normalized fluorescence) is 0.28.
In turn, TGATCGAGGGTA gave a binding signal (log2 normalized fluorescence) of -0.514.
Turning to TGAGCCTTCGTA, the binding signal (log2 normalized fluorescence) was -1.22.
Sequence TGAGACATAGTA showed a binding signal (log2 normalized fluorescence) of -0.476.
The sequence TGACACCTGGTC had a binding signal (log2 normalized fluorescence) of 2.68.
In turn, TGATCTCTTGTA came in with a binding signal (log2 normalized fluorescence) of -1.02.
As for TGATCGGCAGTA, the binding signal (log2 normalized fluorescence) was -0.571.
Sequence TGACTTTACGTA displayed a binding signal (log2 normalized fluorescence) of -0.704.
Under TGATCTGCCGTA stands -0.964; under TCACACGATGTA, 2.97.
Under TGAGTGGACGTA stands 0.0655; under TGAGGAGTGGTA, 0.184; under TGATACTCAGTA, -0.884.
Sequence TGAATCTACGTA registered a binding signal (log2 normalized fluorescence) of -0.92.
TGATGGTCAGTA: the binding signal (log2 normalized fluorescence) was determined as 0.532.
The sequence TGACAAAGTGTA returned a binding signal (log2 normalized fluorescence) of -0.349.
In turn, TGAATCTTTGTA showed a binding signal (log2 normalized fluorescence) of -1.08.
Under TGGCGCGTGGTA stands 3.16; under TGACGCCTGGTA, 0.771; under TGAACTTACGTA, -0.392.
For TGATGTACCGTA the value was 0.189; for TGAAAGACCGTA, -0.764; for TGATACATAGTA, -0.533.
On to ACCCAATAAGAA, for which the binding signal (log2 normalized fluorescence) is 0.402.
Sequence TGATCAATGGTA gave a binding signal (log2 normalized fluorescence) of -0.543.
In turn, TGATTTTCTGTA had a binding signal (log2 normalized fluorescence) of -1.41.
In turn, TGACCGACTGTA had a binding signal (log2 normalized fluorescence) of -0.209.
With TGATCCAAAGTA, the binding signal (log2 normalized fluorescence) was -0.962.
Turning to TGATGCCATGTA, the binding signal (log2 normalized fluorescence) amounted to 0.303.

The values above are taken from article PMC5515408.
